This is an account of results in the supplement of paper PMC10338343.

± gives the standard deviation. Only a part is listed here, and it is no random draw.

The subject of the test is MIWI (PIWIL1) piRISC loaded with L1MC piRNA (30 nt). Kind of test: pre-steady-state target cleavage rate (min^-1); MIWI and MILI are mouse PIWI proteins and EfPiwi is from a freshwater sponge; tags in brackets are library labels; higher = faster piRNA-guided slicing of the target. Conditions: guide: L1MC piRNA 5'p-UAACUAAAUACUAUGCAAGCUGUAGGUCCU
In a few lines:
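A transcribed, DNA-blocked target RNA library […] was incubated at 33 °C for 0–8 or 0–960 min with 1 nM active affinity-purified piRISC carrying one synthetic guide, in HEPES–potassium acetate buffer with or without 500 nM GTSF1 partner protein. Uncleaved targets were then sequenced and normalised to depth and to weakly complementary targets. Data from three trials were pooled, with k3 capped at 0.0001 min^-1, and a burst-and-steady-state fit yielded the pre-steady-state cleavage rate.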

Where [1] appears, read: auxiliary factor: 500 nM mouse GTSF1.
Setting [2] is: auxiliary factor: none (no GTSF1).
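Also: 1 nM active piRISC with 0.1 nM target library at 33 °C single turnover.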

In the case of UCCUGGUACAGCUUGCAUUGUAUUUACUUA, the “pre-steady-state target cleavage rate” value under setting [1] worked out at 0.0968 ± 0.025 and the “pre-steady-state target cleavage rate” value under setting [2] was 0.0136 ± 0.0043.

As for UCCUGGAUGUCGAUGCAUAGUAUUUGAGUUA, under setting [1], the “pre-steady-state target cleavage rate” value came out at 0.0114 ± 0.0044.

With UCCUGGAACAGGUUGCAUAGUAUUUAGAAA, under setting [1], the “pre-steady-state target cleavage rate” value stood at 0.362 ± 0.043.

Regarding UCCUGGAUCAGCUUGCAUACUAUUUAGAUA, the “pre-steady-state target cleavage rate” value runs as follows: under setting [1], 0.0405 ± 0.0092; under setting [2], 0.00727 ± 0.0031.

On to UCCUGGAAGUGCUUGCAUAGUAUUUACAAA, for which the “pre-steady-state target cleavage rate” value under setting [1] turned out to be 0.0137 ± 0.0051.

Regarding AGGACCUACUGCUUGCAUACUAUUUAGUUA, the “pre-steady-state target cleavage rate” value runs as follows: under setting [1], 0.325 ± 0.015; under setting [2], 0.0325 ± 0.0055.

Take UCCACCUACAGCUUGCAUAGUAUUGAGUUA: the “pre-steady-state target cleavage rate” value by setting is: under setting [1], 0.467 ± 0.054; under setting [2], 0.0279 ± 0.0048.

In the case of UCCUGGAUGAGGAUGCAUAGUAUUUAGUAA, the “pre-steady-state target cleavage rate” value under setting [1] stood at 0.0043 ± 0.0037.

With UCCUGCUGACAGCUUGCAUAGUAUUUAGUUA, the “pre-steady-state target cleavage rate” value is, setting by setting: under setting [1], 1.07 ± 0.05; under setting [2], 0.061 ± 0.011.

AGGACCUAGAGCUUGCUUAGUAUUUAGUUA: the “pre-steady-state target cleavage rate” value by setting is: under setting [1], 1.28 ± 0.07; under setting [2], 0.0372 ± 0.0089.

As for UCGACCUACAGCAACCAUAGUAUUUAGUAA, under setting [1], the “pre-steady-state target cleavage rate” value was found to be 0.13 ± 0.028.

With UCCAGGAACAGCUUGCAUAGUAUUUUCAAA, the “pre-steady-state target cleavage rate” value by setting is: under setting [1], 0.232 ± 0.035; under setting [2], 0.00318 ± 0.0021.

On to UCCUGGAACAGCUUCCAUAGUAUUUAGAAA, for which the “pre-steady-state target cleavage rate” value under setting [1] turned out to be 0.00998 ± 0.0048.

Take UCCUGGUACAGCUUGCAUAGUUUUUAGUUA: the “pre-steady-state target cleavage rate” value runs as follows: under setting [1], 0.206 ± 0.031; under setting [2], 0.0254 ± 0.0062.

For the sequence UCGACCUACAGCUUGCAUAGUAUAAUCAAA, under setting [1], the “pre-steady-state target cleavage rate” value was 0.386 ± 0.062.

Turning to UCCUGGUACUGCUUGCAUAGUAAUUAGUUA, the “pre-steady-state target cleavage rate” value is, setting by setting: under setting [1], 0.313 ± 0.047; under setting [2], 0.0127 ± 0.0034.

For the sequence UCCUGGAUGUGUUGCAUAGUAUUUAGUUA, the “pre-steady-state target cleavage rate” value was found to be 0.108 ± 0.019 under setting [1] and 0.00732 ± 0.0033 under setting [2].

On to UCCUGGUACACCUUGGAUAGUAUUUAGUUA, for which the “pre-steady-state target cleavage rate” value under setting [1] was determined as 0.553 ± 0.18 and the “pre-steady-state target cleavage rate” value under setting [2] was 0.00815 ± 0.0041.

Regarding AGGACCUACAGCUUGCAUAGUAUUAUGUUA, the “pre-steady-state target cleavage rate” value runs as follows: under setting [1], 0.47 ± 0.056; under setting [2], 0.0327 ± 0.0076.

For the sequence UCGACGUACAGCUUGCAUAGUAUUUAGUAA, the “pre-steady-state target cleavage rate” value is, setting by setting: under setting [1], 1.01 ± 0.062; under setting [2], 0.0599 ± 0.011.

For UCCUGGAUCAGCUUGCAUAGAAUUUACAAA, under setting [1], the “pre-steady-state target cleavage rate” value turned out to be 0.0559 ± 0.014.

For the sequence AGGACCUACACCUUGCAUUGUAUUUAGUUA, the “pre-steady-state target cleavage rate” value worked out at 0.729 ± 0.022 under setting [1] and 0.0385 ± 0.0073 under setting [2].

For UCCACCCACAGCUUGCAUAGUAUUUAGUUA, the “pre-steady-state target cleavage rate” value under setting [1] was found to be 0.787 ± 0.052 and the “pre-steady-state target cleavage rate” value under setting [2] was 0.0508 ± 0.0088.

With UGGACCUACAGCUUGCAUAGUAUUUAAGUUA, the “pre-steady-state target cleavage rate” value by setting is: under setting [1], 1.07 ± 0.07; under setting [2], 0.0479 ± 0.0099.

With UCCUGGAUGUCGAACGUAUCAAUUAAGUUA, under setting [2], the “pre-steady-state target cleavage rate” value is < 0.0001.

For UCCUCCUACAGCUUGCAUCGUAUUUAGUUA, the “pre-steady-state target cleavage rate” value is, setting by setting: under setting [1], 0.546 ± 0.02; under setting [2], 0.0308 ± 0.0057.

UCCUCCUACAGCUUGCAUAGUAUUAACUUA: the “pre-steady-state target cleavage rate” value was 0.24 ± 0.036 under setting [1] and 0.0062 ± 0.0024 under setting [2].

Regarding UCCUGGUACAGCUUGCAUAGUAUAUAGUAA, the “pre-steady-state target cleavage rate” value is, setting by setting: under setting [1], 0.272 ± 0.036; under setting [2], 0.00905 ± 0.0031.

Consider UCCUGGUACAGCUUGGAAAGUAUUUAGUUA, for which the “pre-steady-state target cleavage rate” value reads like this: under setting [1], 0.388 ± 0.035; under setting [2], 0.00594 ± 0.0024.

As to UCCUGGUACAGCUUGCAUAGUAUUAAGUUA, the “pre-steady-state target cleavage rate” value reads like this: under setting [1], 0.426 ± 0.056; under setting [2], 0.0151 ± 0.0034.

As for AGGACCUACAGGUUGCAUAGUAUUUAGUUA, the “pre-steady-state target cleavage rate” value is, setting by setting: under setting [1], 1.1 ± 0.085; under setting [2], 0.0899 ± 0.021.

For the sequence UGCACCUACAGCAUGCAUAGUAUUUAGUUA, the “pre-steady-state target cleavage rate” value is 0.998 ± 0.092 under setting [1] and 0.0271 ± 0.0047 under setting [2].

As for UGGUGGUACAGCUUGCAUAGUAUUUAGAAA, the “pre-steady-state target cleavage rate” value under setting [1] amounted to 0.195 ± 0.03 and the “pre-steady-state target cleavage rate” value under setting [2] was 0.0046 ± 0.0019.

Regarding UCCUGCUACAGCUUGCAUAGAUUUUUCAAA, under setting [1], the “pre-steady-state target cleavage rate” value is 0.00611 ± 0.004.

With UCGACCUACAGCUUGCAAUGUAUUUAGUUA, the “pre-steady-state target cleavage rate” value is, setting by setting: under setting [1], 0.54 ± 0.035; under setting [2], 0.0055 ± 0.002.

On to AGGACCUACAGCUUGCAUAGAAUUUAGAUA, for which the “pre-steady-state target cleavage rate” value is, setting by setting: under setting [1], 0.361 ± 0.046; under setting [2], 0.0108 ± 0.0045.

As to AGGACCUACAGCUUGCAAGUAUUUAGUUA, the “pre-steady-state target cleavage rate” value runs as follows: under setting [1], 0.434 ± 0.036; under setting [2], 0.0101 ± 0.0035.

For UCCUGGAUGUGCUAGCAUAGUAUUUUGUUA, the “pre-steady-state target cleavage rate” value reads like this: under setting [1], 0.0336 ± 0.0064; under setting [2], 0.00694 ± 0.003.

As to AGGACCUACUCCUUGCAUAGUAUUUUCAAA, the “pre-steady-state target cleavage rate” value under setting [1] worked out at 0.268 ± 0.037 and the “pre-steady-state target cleavage rate” value under setting [2] was 0.00279 ± 0.0022.

As to AGGACCUACAGCUUGCAUAGUAUUAAGAAA, the “pre-steady-state target cleavage rate” value under setting [1] stood at 0.383 ± 0.055 and the “pre-steady-state target cleavage rate” value under setting [2] was found to be 0.00355 ± 0.0033.

In the case of UGGACCAUGAGCUUGCAUAGUAUUUUCAAA, the “pre-steady-state target cleavage rate” value reads like this: under setting [1], 0.14 ± 0.023; under setting [2], 0.00304 ± 0.0023.

Turning to AGGACCUACAGCUUGCCAUAGUAUUUAGUUA, the “pre-steady-state target cleavage rate” value under setting [1] was found to be 0.445 ± 0.048 and the “pre-steady-state target cleavage rate” value under setting [2] was determined as 0.00418 ± 0.0029.

As to UGGACCUAGAGCUUGCAUAGUAUUUAGAUA, the “pre-steady-state target cleavage rate” value by setting is: under setting [1], 0.259 ± 0.029; under setting [2], 0.0209 ± 0.0041.

Turning to UCCUGGAUGUGCUUGCUUAGUAUUUAGUAA, the “pre-steady-state target cleavage rate” value by setting is: under setting [1], 0.0383 ± 0.008; under setting [2], 0.0104 ± 0.0033.

Turning to UCCACCUACAGGUUGCAUAGUAUUAAGUUA, the “pre-steady-state target cleavage rate” value reads like this: under setting [1], 0.862 ± 0.1; under setting [2], 0.0119 ± 0.0023.

Turning to UCCUGCUACAGCUUCCUUAGUAUUUAGUUA, the “pre-steady-state target cleavage rate” value under setting [1] turned out to be 0.422 ± 0.046 and the “pre-steady-state target cleavage rate” value under setting [2] is 0.00305 ± 0.0021.

As to UCCUCCUACAGCUUGCAUAGUAUAUAGUAA, the “pre-steady-state target cleavage rate” value by setting is: under setting [1], 0.3 ± 0.037; under setting [2], 0.00732 ± 0.0018.

Take UCCUCCUUCAGCUUGCAUAGUAUUUAGUAA: the “pre-steady-state target cleavage rate” value is 0.717 ± 0.04 under setting [1] and 0.0202 ± 0.0041 under setting [2].

Regarding UGGACCUACAGCUUGCACAGUAUUUAGUUA, the “pre-steady-state target cleavage rate” value stood at 0.969 ± 0.036 under setting [1] and 0.0507 ± 0.0094 under setting [2].

Take UCCUGGAUGUGGCUUGCAUAGUAUUUAGUUA: the “pre-steady-state target cleavage rate” value by setting is: under setting [1], 0.815 ± 0.049; under setting [2], 0.0624 ± 0.015.

For UCCUGGAUCAGCUUGCAUUGUAAUUAGUUA, the “pre-steady-state target cleavage rate” value reads like this: under setting [1], 0.084 ± 0.0095; under setting [2], 0.00899 ± 0.0041.

As to UCCACCUACUGCUUGCAUAGAAUUUAGUUA, the “pre-steady-state target cleavage rate” value under setting [1] came out at 0.313 ± 0.027 and the “pre-steady-state target cleavage rate” value under setting [2] worked out at 0.0147 ± 0.0038.

With UCCUGCUACAGCUUGCAUAGUUUUUUGUUA, the “pre-steady-state target cleavage rate” value runs as follows: under setting [1], 0.344 ± 0.038; under setting [2], 0.0176 ± 0.0041.

As to UCCUGGAACAGCUUGCAUAGUAUUUAGUA, the “pre-steady-state target cleavage rate” value stood at 0.638 ± 0.042 under setting [1] and 0.00904 ± 0.0031 under setting [2].

For UCCUGGAACUGCUUGCAUAGUAUUUACUUA, the “pre-steady-state target cleavage rate” value runs as follows: under setting [1], 0.151 ± 0.025; under setting [2], 0.0139 ± 0.0032.
